Source: article PMC4336329 (PLoS ONE, 2015)
In all, about 310,000 compounds went through this assay and about 2,200 (0.71%) showed an effect of 50% or more. Effects have a minus sign here. This is one part of the list.

These compounds were tested against human ether-à-go-go-related gene (hERG) potassium channel (human, UniProt Q12809) (assay: primary screen, population patch clamp on CHO cells stably expressing hERG).
Chain of human ether-à-go-go-related gene (hERG) potassium channel (Q12809 whole entry, looked up): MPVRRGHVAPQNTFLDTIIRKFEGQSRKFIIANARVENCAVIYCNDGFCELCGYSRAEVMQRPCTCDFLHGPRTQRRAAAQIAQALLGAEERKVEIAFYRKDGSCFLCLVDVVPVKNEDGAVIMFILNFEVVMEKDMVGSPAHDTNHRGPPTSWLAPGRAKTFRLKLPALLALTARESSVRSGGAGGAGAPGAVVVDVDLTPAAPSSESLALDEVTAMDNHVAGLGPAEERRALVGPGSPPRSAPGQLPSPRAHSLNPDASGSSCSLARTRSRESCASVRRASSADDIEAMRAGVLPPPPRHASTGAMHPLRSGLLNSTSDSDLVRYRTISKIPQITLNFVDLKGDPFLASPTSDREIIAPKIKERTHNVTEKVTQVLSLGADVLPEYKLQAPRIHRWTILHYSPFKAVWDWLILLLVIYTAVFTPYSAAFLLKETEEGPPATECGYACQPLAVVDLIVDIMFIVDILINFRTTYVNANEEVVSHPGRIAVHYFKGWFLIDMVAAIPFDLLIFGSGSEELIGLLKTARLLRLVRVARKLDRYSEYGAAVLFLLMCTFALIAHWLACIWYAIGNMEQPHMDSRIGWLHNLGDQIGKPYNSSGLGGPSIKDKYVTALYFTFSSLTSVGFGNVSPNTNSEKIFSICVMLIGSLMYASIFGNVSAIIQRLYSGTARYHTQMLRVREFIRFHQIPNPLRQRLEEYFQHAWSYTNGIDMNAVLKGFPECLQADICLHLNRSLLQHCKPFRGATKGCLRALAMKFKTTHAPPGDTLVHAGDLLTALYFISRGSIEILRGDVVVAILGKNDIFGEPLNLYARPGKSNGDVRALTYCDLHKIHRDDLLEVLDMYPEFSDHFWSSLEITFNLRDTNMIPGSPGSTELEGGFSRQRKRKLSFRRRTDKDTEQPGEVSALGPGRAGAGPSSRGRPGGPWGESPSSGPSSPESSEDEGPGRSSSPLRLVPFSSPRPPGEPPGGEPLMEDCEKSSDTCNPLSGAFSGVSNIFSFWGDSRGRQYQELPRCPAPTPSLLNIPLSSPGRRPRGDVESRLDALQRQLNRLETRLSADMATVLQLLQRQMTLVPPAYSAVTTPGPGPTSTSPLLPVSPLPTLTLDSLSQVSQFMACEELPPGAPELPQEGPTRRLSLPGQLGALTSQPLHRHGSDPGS

SMILES | hERG current change (%, negative = inhibition) at 1uM [%]
Cc1c(NC(=S)SCc2ccccc2)c(=O)n(-c2ccccc2)n1C | 10.8
CCOc1cc(/C=C/C(=O)c2ccc(O)cc2)ccc1OCC(=O)N(C)C | -3.93
N#Cc1c2c(c(-n3cnc4ccccc43)n3c1nc1ccccc13)CCC2 | 11.8
O=[N+]([O-])c1ccc(Cl)c(/C=N/n2c(C3CCCCC3)n[nH]c2=S)c1 | -4.92
COc1cccc(NC(=O)N2CCC(NC(=O)C(Cc3cccc(C)c3)NC(C)=O)CC2)c1 (stereo not shown) | 3.75
O=C(c1ccc(S(=O)(=O)N2CCC(c3nc4ccccc4[nH]3)CC2)cc1)N1CCOCC1 | 3.71
CC(C)OCC1CC(CC(=O)NC(=S)Nc2cccc([N+](=O)[O-])c2)C(=O)O1 (stereo not shown) | -8.66
Cc1n[nH]c(=S)n(/N=C/c2cccc([N+](=O)[O-])c2)c1=O | 13.1
Cc1cc(N/N=C/c2ccccc2)nc(N)n1 | 6.99
CC1CC(C)CN(C(=O)C2CC(=O)N(c3ccc4c(c3)OCCO4)C2)C1 (stereo not shown) | 9.9
Cc1ccccc1N1CCN(CCCCN2C(=O)C3CCCN3C2=O)CC1.Cl.O (stereo not shown) | -26
CC(C)(C)S(=O)(=O)/C(C#N)=N/Nc1ccc(C#N)cc1 | 20.6
O=C(N=Nc1ccc(NOC(=O)c2ccccc2Br)cc1)c1ccccc1O | 11.7
FC(F)Oc1ccc(NC(=S)NN2CCOCC2)cc1 | 13.1
C/C(=N\NC(=O)c1ccc(N2CCCC2=O)cc1)c1ccc(O)cc1O | 14.2
Cc1c(/C(O)=C2/C(=O)C(=O)N(Cc3cccnc3)C2c2cccs2)cnn1-c1ccccc1 (stereo not shown) | 13.4
N#Cc1ccccc1COC(=O)c1ccc2c(c1)OCO2 | -1.2
Cc1ccc(C)c(CSc2nnc(C)c(=O)n2N)c1 | 6.96
Cn1nnc2c[n+](CC(=O)c3ccc(Cl)cc3)cc(Br)c21.[Br-] | 4.21
COc1cc2c(cc1OC)CN(S(=O)(=O)/C=C/c1ccccc1)CC2 | 14.9
Fc1ccccc1CCNCc1cccc2ccccc12 | 14.1
COc1cccc(C(=O)NCCS(=O)(=O)NC2CCCC2)c1 | 11.1

SMILES | hERG current change (%, negative = inhibition) at 1uM [%]
CCOC(=O)c1c(C)n(C)c2ccc(O)c(CN3CCC(C)CC3)c12 | -4.03
CC(=C/c1ccco1)/C=N/NC(=O)c1nnn(-c2nonc2N)c1CN(C)C | -16.9
COc1ccc(NC(=O)CCCCCn2nnc3ccccc3c2=O)cc1OC | 10.4
Cn1c(CN2CCOCC2)nnc1SCC(=O)NC1CCCCC1 | 12.8
COc1ccc(CC(=O)Nc2ccc(/C(C)=N/NC(=O)c3cccc([N+](=O)[O-])c3)cc2)cc1 | 14.2
CC(NC(=S)Nc1ccc(OC(F)F)cc1OC(F)F)C(C)(C)C (stereo not shown) | 2.91
CC(=O)N1CCN(c2ccc(NC(=O)c3cccc(Cl)c3Cl)cc2)CC1 | 3.68
CCn1c(SCCC(C)C)nnc1-c1c[nH]c2ccccc12 | 5.05
CCN(CC)CCN(Cc1cc2cccc(C)c2[nH]c1=O)C(=S)Nc1ccccc1 | -35
COC(=O)C1=C(c2ccc(F)cc2F)C[C@@H]2CC[C@H]1N2C(=O)NCc1ccc2c(c1)OCO2 | 6.83
COc1ccc(-c2nc(C#N)c(NCc3ccc(F)cc3)o2)cc1OC | 6.12
O=C(Nc1nc2ccccc2s1)C1CC(=O)N(c2ccc(F)cc2)C1 (stereo not shown) | 1.41
COC(=O)Nc1ccc(S(=O)(=O)N2CCC(C(=O)N3CCCCC3C)CC2)cc1 (stereo not shown) | 8.69
O=C(O)C(=O)O.O=[N+]([O-])c1ccccc1S(=O)(=O)N1CCN(Cc2ccc3c(c2)OCO3)CC1 | 14.3
CCO[C@@H]1OC(C(=O)NCc2ccccc2)=C[C@H](c2ccc3c(c2)OCO3)[C@H]1CCCO | 8.88
CCOC(=O)N1CCN(C(=O)COc2cccc3c2CCN(CC)C3=O)CC1 | 16.5
CCOC(=O)/C=C1\SCC(=O)N1CC(O)CN1C(=O)CS/C1=C\C(=O)OCC (stereo not shown) | 3.11
COCCn1nnnc1C(c1cc2cccc(C)c2[nH]c1=O)N1CCN(c2ccccc2F)CC1 (stereo not shown) | 8.7
NC(=O)CSc1nc(-c2ccccc2)nc2c1CCCC2 | 11.8
CSc1nc(SCC(=O)NC(c2ccccc2)c2ccccc2)c2c3c(sc2n1)CN(C)CC3 | 0.389
O=C(CC1C(=O)NCCN1C(=O)c1ccccc1)Nc1cc(Cl)ccc1Cl (stereo not shown) | 3.15
COc1ccc(N2CCN(S(=O)(=O)c3ccc4oc(=O)ccc4c3)CC2)cc1 | 5.44

SMILES | hERG current change (%, negative = inhibition) at 1uM [%]
CC(=O)N/N=C(/c1ccccc1)C(O)c1ccccc1 (stereo not shown) | 9.66
CCC(NC(=O)C1CCCO1)c1ccccc1 (stereo not shown) | 16.9
Cc1cccc(N2CCN(c3ccc(N4C(=O)CCCC4=O)cc3[N+](=O)[O-])CC2C)c1 (stereo not shown) | 13.1
NC(=O)C1CCCN(C(=O)c2ccc(Cl)cc2)C1 (stereo not shown) | 0.138
Cc1cc(NC(=O)c2cccc(S(=O)(=O)N3CC(c4ccccc4)CC3=O)c2)no1 (stereo not shown) | 1.27
O=C(CSc1nncc2ccccc12)Nc1cccc(O)c1 | 10.9
COc1cc2c(cc1OC)CN(CC(=O)Nc1ccc(F)cc1F)CC2 | 5.13
O=C(CCCOc1ccccc1)NN1C(=O)NC2(CCCCC2)C1=O | 25.2
Cc1noc2c1C(c1ccc(N(C)C)cc1)C1=C(CC(C)(C)CC1=O)N2 (stereo not shown) | 7.27
Cc1ccsc1C(=O)N/N=C/c1ccc2c(c1)OCO2 | 12
CC(=O)Nc1cccc(NC(=O)c2csc(C)c2)c1 | 10.5
Cc1ccc(-n2ncc3c(=O)[nH]c(SCC(=O)N4CCOCC4)nc32)cc1 | 8.3
COCCSc1ccccc1C(=O)Nc1ccc(Br)cc1 | 10.6
N#Cc1ccc(S(=O)(=O)NC2CCCCNC2=O)cc1 (stereo not shown) | 6.61
Cc1c(C#N)c(NC(=O)CCl)n(Cc2ccccc2)c1C | 24.7
Cc1ccc(CNS(=O)(=O)c2c(C(=O)N3CCCCC3)c(C)n(C)c2C)cc1 | 6.8
CCCCCC(=O)Nc1sc(C)c(C)c1C#N | 1.66
Cc1cc(NC(=O)CSc2ncnc3c2cnn3-c2cccc(Cl)c2)no1 | 7.61
CSc1ncccc1C(=O)NNc1cc(Cl)ccc1Cl | 11.9
C=CCNc1ncnc2c1[nH]c1ccc(Cl)cc12 | 0.0887
Cc1ccc(/C=C2\SC(=S)N(/N=C/c3cc([N+](=O)[O-])ccc3O)C2=O)o1 | 8.62
COc1cc(NC(=O)C2CCCCC2)c(OC)cc1NC(=O)CN1CCCCC1 | 5.77

SMILES | hERG current change (%, negative = inhibition) at 1uM [%]
Cc1cccc(N2C(=O)CSC23CCCCC3)c1 | 16.8
Cc1ccc2c(c1)NC(=O)C(CC(=O)NCCN(C)C)O2 (stereo not shown) | 2.74
COc1ccc(C(=O)N/N=c2\oc3ccccc3cc2C(N)=O)cc1 | 11.2
CC(C(=O)OCC(=O)Nc1cccc(S(=O)(=O)N2CCOCC2)c1)N1C(=O)c2ccccc2C1=O (stereo not shown) | 18
Cc1ccc(C(=O)O)cc1NC(=S)NC(=O)C(c1ccccc1)c1ccccc1 | 5.46
COCCN1C(=O)CC(NNC(=O)c2ccc(S(=O)(=O)N3CCCC3)cc2)C1=O (stereo not shown) | 5.4
CCOc1ccc(OCC)c(S(=O)(=O)NCc2ccccc2)c1 | 4.51
Cc1cccc(NC(=O)CSc2ncnc3nc[nH]c23)c1 | 8.72
CC(C)n1nc(C(=O)OCn2nnc3ccccc3c2=O)c2ccccc2c1=O | 12.1
NC(=S)N/N=C/c1ccc(-c2ccc([N+](=O)[O-])cc2)o1 | 13.3
O=C(COc1ccccc1)Nc1nn[nH]n1 | 2.85
CC1CCN(S(=O)(=O)c2cnc[nH]2)CC1 | 15
COc1ccc(C(=O)N=C2SC3CS(=O)(=O)CC3N2c2ccc(N(C)C)cc2)cc1OC (stereo not shown) | 9.99
COc1ccc(CN2CCCCCC2)cc1OC | 2.9
CSc1ccc(/C=C/C(=O)NC23CC4CC(CC(C4)C2)C3)cc1 | 13.8
O=C(CCl)Nc1c(C(=O)Nc2ccc3c(c2)OCCO3)oc2ccccc12 | 11.7
Cc1cc(C)c(-c2c(O)c3c(n(C)c2=O)CC(C)(C)CC3=O)c(C)c1 | 4.76
Clc1ccccc1-c1nnc2sc(-c3ccc(Br)o3)nn12 | 3.17
CCc1cc(C=NC2CCCCC2)c(O)s1 | 11.4
CCOc1ccccc1Nc1nnc(SCC(=O)Nc2ccc3[nH]c(=O)[nH]c3c2)s1 | -5.22
COc1cc(C#Cc2c(-c3cncn3C)n(C)c3ccc(-c4cnc(OC)nc4)cc23)cc(OC)c1 | 15.1
O=C(O)[C@@H](c1ccccc1)N1Cc2ccccc2C1=O | 13.8
